The source of these data is a collection of fitness landscapes (doi:10.1126/science.1257360).

B1: PhoQ; a variant is named by its letters at X, in order, P23837 (parent)
chain: MKKLLRLFFPLSLRVRFLLATAAVVLVLSLAYGMVALIGYSVSFDKTTFRLLRGESNLFYTLAKWENNKLHVELPENIDKQSPTMTLIYDENGQLLWAQRDVPWLMKMIQPDWLKSNGFHEIEADVNDTSLLLSGDHSIQQQLQEVREDDDDAEMTHSVAVNVYPATSRMPKLTIVVVDTIPVELKSSYMVWSWFIYVLSANLLLVIPLLWVAAWWSLRPIEALAKEVRELEEHNRELLNPATTRELTSLVRNLNRLLKSERERYDKYRTTLTDLTHSLKTPLXXLQXXLRSLRSEKMSVSDAEPVMLEQISRISQQIGYYLHRASMRGGTLLSRELHPVAPLLDNLTSALNKVYQRKGVNISLDISPEISFVGEQNDFVEVMGNVLDNACKYCLEFVEISARQTDEHLYIVVEDDGPGIPLSKREVIFDRGQRVDTLRPGQGVGLAVAREITEQYEGKIVAGESMLGGARMEVIFGRQHSAPKDE

The list shows a part of the results.

This assay covers variants of B1. Kind of assay: enrichment ratio after two sorts for PhoP signalling (ratio (wild type AVST 3.29)); higher = more functional. The following applies: with PhoP (E. coli).
Regarding NTHF, the enrichment ratio came out at 0.486.
In the case of SKDP it was no more than 0.25.
In the case of LMNM it was no more than 0.25.
In the case of VAFP it was no more than 0.25.
MMLC: the enrichment ratio is no more than 0.25.
In the case of HMTG it was no more than 0.25; in that of RGNR, no more than 0.25; in that of FFQC, no more than 0.25.
In the case of DERR it was no more than 0.25; in that of HIAH, no more than 0.25; in that of YPLW, no more than 0.25.
In the case of QYWS it was no more than 0.25; in that of LQLP, no more than 0.25.
Consider NLVV, for which the enrichment ratio was no more than 0.25.
In the case of VTLH it was 1.22; in that of IVMM, no more than 0.25.
The same measure for AYFP: no more than 0.25; for DMSF: no more than 0.25.
In the case of AVSQ it was 14.8.
For FDCI, the enrichment ratio was no more than 0.25.
The same measure for VIHQ: no more than 0.25; for SDEI: no more than 0.25.
The same measure for WESK: no more than 0.25; for KEVH: no more than 0.25.
In the case of VRCQ it was no more than 0.25; in that of SKAS, 7.22; in that of GHYC, no more than 0.25.
For KLNF, the enrichment ratio was no more than 0.25.
In the case of YLWI it was no more than 0.25.
In the case of SSGN it was 2.51.
The same measure for NPTK: no more than 0.25.
Regarding QKFS, the enrichment ratio is no more than 0.25.
In the case of TQHV it was 5.45.
The same measure for YTWH: no more than 0.25; for RTPM: no more than 0.25.
In the case of RPCL it was no more than 0.25; in that of VECE, no more than 0.25; in that of RGSW, no more than 0.25.
Regarding WESP, the enrichment ratio was no more than 0.25.
The same measure for DTSI: no more than 0.25; for MNAT: 6.83.
In the case of FCAW it was no more than 0.25.
In the case of WRYG it was no more than 0.25; in that of SKCH, 9.88; in that of GFST, no more than 0.25.
As for VYSE, the enrichment ratio was no more than 0.25.
In the case of IFMR, the enrichment ratio was no more than 0.25.
In the case of EAVW it was no more than 0.25; in that of AEWV, no more than 0.25.
In the case of HAIN it was no more than 0.25; in that of VGYD, no more than 0.25; in that of TQMN, no more than 0.25.
In the case of QSVA it was no more than 0.25; in that of YGCS, no more than 0.25.
For the variant GYKP, the enrichment ratio was no more than 0.25.
Take RRFA: the enrichment ratio is no more than 0.25.
The same measure for PGTL: no more than 0.25.
The same measure for ECPA: no more than 0.25; for VTLD: no more than 0.25; for PLWD: no more than 0.25.
In the case of ERQR it was no more than 0.25; in that of IAEQ, no more than 0.25.
In the case of VCVR, the enrichment ratio is no more than 0.25.
In the case of PETF it was no more than 0.25; in that of YTFE, no more than 0.25; in that of NEND, no more than 0.25.
In the case of QWAV it was no more than 0.25; in that of LIWM, no more than 0.25.
In the case of KLIF it was no more than 0.25; in that of SCDA, no more than 0.25; in that of PKKR, no more than 0.25.
As to NFIG, the enrichment ratio is no more than 0.25.
In the case of RNWF it was no more than 0.25; in that of LSCH, no more than 0.25; in that of FNED, no more than 0.25.
Consider VYLV, for which the enrichment ratio was no more than 0.25.
The same measure for GTIG: 1.96.
The same measure for DPAM: no more than 0.25; for HRSI: no more than 0.25.
The same measure for STMP: no more than 0.25; for PNQT: no more than 0.25.
As for HFMT, the enrichment ratio was no more than 0.25.
In the case of KNYK it was no more than 0.25; in that of RWRS, no more than 0.25.
The same measure for HDSW: no more than 0.25.
The same measure for MPKS: no more than 0.25; for KQNL: no more than 0.25; for QMVV: no more than 0.25.
Take YWSI: the enrichment ratio is no more than 0.25.
In the case of QMPM it was no more than 0.25; in that of WQVC, no more than 0.25.
Regarding FPCH, the enrichment ratio was no more than 0.25.
Turning to ASAN, the enrichment ratio was 6.39.
On to VPGG, for which the enrichment ratio is no more than 0.25.
In the case of YCSC it was no more than 0.25; in that of AVIS, 0.697.
The same measure for GCRS: no more than 0.25.
In the case of APKH it was no more than 0.25.
In the case of QLNP, the enrichment ratio is no more than 0.25.
The same measure for ALTP: no more than 0.25; for KFRQ: no more than 0.25; for HTHK: no more than 0.25.
The same measure for FTFR: no more than 0.25; for GHPP: no more than 0.25; for DQSQ: no more than 0.25.
The same measure for AELG: 5.28.
YYAK: the enrichment ratio was no more than 0.25.
The same measure for RAKT: no more than 0.25; for NSVK: no more than 0.25; for WMIF: no more than 0.25.
In the case of NHGM it was no more than 0.25.
The same measure for IIMH: no more than 0.25; for SKEI: no more than 0.25.
HHHP: the enrichment ratio is no more than 0.25.
In the case of WKEH it was no more than 0.25.
The same measure for EYVE: no more than 0.25.
In the case of IPWW it was no more than 0.25; in that of VVDD, no more than 0.25; in that of YIRD, no more than 0.25.
Consider QVCP, for which the enrichment ratio was no more than 0.25.
The same measure for KIHY: no more than 0.25; for NQVL: no more than 0.25; for GPFG: no more than 0.25.
In the case of WLDL it was no more than 0.25; in that of DWSD, no more than 0.25; in that of LKIP, no more than 0.25.
The same measure for IYGR: no more than 0.25.
In the case of TEPS, the enrichment ratio was no more than 0.25.
The same measure for ILFG: no more than 0.25; for TEPW: no more than 0.25.
The same measure for YKNK: no more than 0.25; for IMSE: no more than 0.25; for YGKN: no more than 0.25.
The same measure for ILDA: no more than 0.25; for SVAW: 5.54; for HGLN: no more than 0.25.
As for YVFN, the enrichment ratio was no more than 0.25.
The same measure for WTDS: no more than 0.25; for IDQM: no more than 0.25; for LHKI: no more than 0.25.
The same measure for ETAN: no more than 0.25; for TYFK: no more than 0.25.
The same measure for RQYC: no more than 0.25; for HGIY: no more than 0.25.
As for VYRE, the enrichment ratio was no more than 0.25.
In the case of AHNP it was no more than 0.25; in that of TACA, 8.47.
Turning to FLLD, the enrichment ratio is no more than 0.25.
In the case of HGWS it was no more than 0.25; in that of PFAN, no more than 0.25; in that of RKWI, no more than 0.25.
Regarding NTMV, the enrichment ratio is no more than 0.25.
For LAHY, the enrichment ratio is no more than 0.25.
